# The full ranking holds about 33,000 sequences; the median of “E-score (-0.5 to 0.5)” is about -0.054, and the highest 2% start at about 0.39. Some of the results follow.
# Biological target: Ylr278c (UniProt Q05854)
# Assay: PBM E-score (8-mer binding enrichment) (E-score (-0.5 to 0.5)); higher = stronger / more preferred TF binding; most listed sequences are background and not binding sites
# Settings: protein concentration: 200 nM; construct: GST-DNA-binding domain
# Method in brief: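 Universal all-10-mer Agilent arrays, double-stranded by primer extension on fresh or once-stripped slides, were probed with about 100-200 nM GST-tagged yeast transcription factors made by PURExpress. Fluorescent anti-GST detected bound protein, and masliner normalised the scans. E-scores from the Universal PBM Analysis Suite were given to each ungapped eight-base word pooled with its reverse complement.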
row,Sequence,PBM E-score
1,CGCCACCA,-0.0848
2,ATGGTTAC,-0.246
3,GCGTAACC,-0.0718
4,CATATAGC,0.0763
5,AAGGGCAG,-0.309
6,ACAGTAAA,-0.0669
7,GGATTGGA,-0.0255
8,CGACTTAC,0.0558
9,GAGTGACC,-0.0085
10,GGCAATTA,-0.00272
11,AGTGCTCC,0.115
12,AACCGATT,0.174
13,CGAACCAC,0.119
14,ATGTATCA,-0.215
15,GAGTAATC,-0.0516
16,GTAAATCA,0.148
17,AAAATGTT,-0.221
18,GCTGGACC,-0.129
19,AGAATCAG,0.0154
20,CAGGCATA,-0.199
21,GATAGCAC,-0.0953
22,CGGAACAG,0.388
23,GAAGCCGC,0.219
24,TCCCACCA,-0.152
25,GACTGCTC,-0.0476

row,Sequence,PBM E-score
1,AAGTACGA,0.122
2,GGGACGGA,0.369
3,CACACTAA,-0.17
4,GACCGTGC,-0.102
5,GTGAGCGA,-0.134
6,AGGCTGAA,-0.219
7,CCGTCTCC,0.298
8,CAGGAGCG,-0.00543
9,AAGGGTGA,-0.152
10,ACTCGTAT,-0.237
11,AGAGACCC,-0.0819
12,CTGGGCTC,-0.202
13,ACTTAACT,0.00817
14,CTCGGGCC,0.175
15,CAATGGAC,-0.113
16,CCCAGACC,-0.154
17,CGAGTCCA,-0.144
18,GAGCGAAA,0.0988
19,ATTTAGCG,0.108
20,ACCACAAC,-0.0113
21,ACTGCATA,-0.075
22,CCGCCCAG,0.301
23,GACTGCTA,-0.277
24,GGGGCAAA,0.194
25,GCCGAAGA,0.216

row,Sequence,PBM E-score
1,ACTGCAAC,-0.179
2,GCCTAGCA,-0.245
3,CATCTAAA,-0.0637
4,AAATGCCT,-0.152
5,GACATGTA,0.0493
6,AATATCCT,-0.086
7,CCGGTCAG,0.268
8,ATCCGGTC,0.346
9,GTCCATAA,-0.245
10,ACTAGGTG,-0.117
11,GAAGTGAA,-0.0198
12,GTCCGCTA,0.244
13,AGCGCCCA,-0.248
14,ATTAGGTA,-0.247
15,GCGCCGCA,0.267
16,GCGCATAA,-0.0332
17,ATCTTACC,-0.00306
18,GCATAGGA,-0.0805
19,ATCTCCCA,0.0776
20,ACGTCTTA,-0.241
21,AGAATCTG,-0.0135
22,GCTAAAAA,-0.234
23,CACGCATA,-0.222
24,CAGAGTAC,-0.146
25,CGCTGCCG,0.0994

row,Sequence,PBM E-score
1,TAACTAAA,-0.155
2,GACGGGCC,0.13
3,CCGCGGCC,0.361
4,TGCCTAAA,-0.204
5,CAACGCTG,-0.0524
6,AGCGTTTA,-0.158
7,GCTTGGCC,0.103
8,CTAGAATC,-0.06
9,CTGTCACC,-0.12
10,CTTTAAAG,-0.389
11,CATGTCAG,-0.175
12,AGTGAGCC,-0.162
13,GATCAAAC,-0.115
14,AGTTGACG,0.0491
15,GAAGCCTA,0.0928
16,TCAGCCCA,-0.132
17,CATCACTC,-0.0512
18,ACACGAAC,-0.123
19,CGTTTCAC,0.0729
20,CACTAACA,-0.16
21,ATCGTCAT,-0.116
22,CCCGTACG,0.134
23,ACGACTGG,-0.0981
24,CCTGCCTC,-0.143
25,CCTTCAAC,-0.196

row,Sequence,PBM E-score
1,CGGGGCAA,0.184
2,AATTTCCT,0.0327
3,AGACTATA,-0.144
4,CAGGATCC,-0.0148
5,CACGGACG,0.22
6,CGCTTGCC,0.117
7,TTAGAGAA,-0.215
8,AGTAAACC,0.068
9,CGACGTCA,-0.0776
10,CAATTAAA,-0.0963
11,GGGAGGAC,0.0177
12,CGGACACA,0.276
13,ACCGAAGT,0.129
14,CCCTCAGA,-0.18
15,ATGCCTCC,0.0134
16,AATAGTCC,0.146
17,GAACCCCC,-0.0851
18,AAAGCTTA,-0.255
19,ACAACCAA,-0.191
20,GAGCATAC,-0.0791
21,CGAATTCC,0.28
22,AGTCCCAC,-0.105
23,ATGCAATA,-0.285
24,GCAACAAC,-0.0286
25,CGAAATAA,0.197

row,Sequence,PBM E-score
1,TCACTTCA,-0.0462
2,GGTGTAGA,-0.0435
3,AGCACCGG,0.334
4,AATAAAAT,-0.0854
5,ATCTCCAC,0.0374
6,GCCTGGCA,-0.295
7,GATTCCCA,0.0255
8,AAGCGTTC,-0.0671
9,AGCATCCT,0.131
10,AGACATCT,-0.19
11,AGACAACA,-0.138
12,TCTCTCAA,0.113
13,ACAAATAT,0.141
14,GGAGCGTA,0.149
15,AAACTAAC,-0.0564
16,ATTAGTCC,0.192
17,AAGACACC,-0.0134
18,ACTCGTTA,0.0135
19,ACATATTA,-0.0665
20,CTGGTAAG,-0.157
21,AGGTTTGA,-0.055
22,AAGAGGAA,-0.155
23,GGCGGTAC,0.0996
24,GATGCGCA,0.0557
25,ATGTGTGG,-0.121

row,Sequence,PBM E-score
1,TCAGCGCA,0.00893
2,ACCGGCGA,0.379
3,CTCTATAA,-0.198
4,ATAAGCAC,-0.00387
5,CATATAGG,-0.0867
6,TACTGACA,-0.0721
7,ACTGTGAT,-0.027
8,AAACTATC,-0.132
9,ACATCATC,-0.0477
10,CTGGGTGC,-0.171
11,GGCCAATA,0.172
12,CGATTCCG,0.396
13,CTCGTAGA,-0.357
14,AGCTTACA,-0.0912
15,TAGCGGCA,0.173
16,GGGAGGAA,0.224
17,AAACCAGC,0.0107
18,GAAGTGGA,-0.0399
19,GGAGTATA,0.309
20,GACCTCCA,0.0669
21,TCCGGCGA,0.437
22,CCGGACAA,0.444
23,AACGCGGC,0.183
24,CGGTCTTC,0.267
25,GTGATCGA,-0.0596

row,Sequence,PBM E-score
1,ATGAATGA,-0.0897
2,GGAAAGCC,0.234
3,CCCATGAG,-0.177
4,GTCCCTTA,-0.136
5,ATTGGCCA,-0.106
6,TGGTGCAA,-0.23
7,GAGAGCTA,0.0123
8,AACGACGA,0.017
9,GAAGATGA,-0.0839
10,ACCGTACA,-0.212
11,GTACGCCA,-0.188
12,CTGACTAC,-0.246
13,ACTAAACG,-0.0591
14,ATTGACCC,-0.0415
15,ACTCAACG,-0.0871
16,ACTTAAGG,-0.105
17,ACGGCGCT,0.0491
18,ATAGGTGG,-0.163
19,GGCTCATA,-0.0683
20,CATTCCGA,0.391
21,CTGATAGC,-0.122
22,GGGGCCCA,-0.0453
23,CAAATCAG,-0.31
24,TACGACGA,-0.164
25,ACCCCAAA,0.033

row,Sequence,PBM E-score
1,CCTAAATA,-0.129
2,AGCACCTC,-0.0125
3,AACAAGGG,-0.101
4,ATATTTCA,-0.0692
5,AAGATCTG,-0.141
6,CTCCCAAA,-0.0387
7,CGCATCAA,0.169
8,AAAATGGT,0.184
9,AAACAAAC,-0.146
10,TGTAGGAA,-0.0987
11,ATGTCCTA,-0.111
12,ACATCCCT,-0.0585
13,AAATACCG,0.317
14,CACGTCCC,-0.155
15,AGGTTGAA,-0.0182
16,AAGAGCTG,-0.239
17,TTATAGAA,-0.231
18,CGCCACAG,-0.0993
19,AGGCCCAA,-0.0551
20,CCGAAATA,0.326
21,CCTGTTTC,-0.15
22,ATTGAAAG,0.0201
23,AGCAGTCA,-0.154
24,AAACCGTG,-0.104
25,ACTTTTGG,0.0425

row,Sequence,PBM E-score
1,TATCCATA,-0.101
2,CCTGCAGC,-0.174
3,CCGTTACA,0.182
4,GCCGCATA,0.23
5,TATCGGGA,0.288
6,AGTTAGTG,-0.12
7,AAATAGAT,0.0146
8,TGCCAACA,-0.166
9,GTGTGTAA,-0.169
10,AGAACCAC,-0.152
11,ACGATCGT,-0.182
12,CCTCTTGA,-0.327
13,GGCCTGTA,-0.0436
14,GTGGGGAA,0.0514
15,AAGGCCAT,0.0563
16,CTGCGCAC,0.108
17,GGTGTTAA,-0.0152
18,GCCGGTCA,0.28
19,GCGAAACA,0.0359
20,ACCATTGC,-0.0654
21,CGAGTTAC,-0.00574
22,CTCAATTC,0.0265
23,CTCACGAG,-0.21
24,AGAGGTTC,0.0871
25,ATCATGCA,-0.315

row,Sequence,PBM E-score
1,GGACGAAC,0.194
2,CCGAATAC,0.362
3,AAATAATG,0.0558
4,GCTAAGCA,-0.0726
5,CGTTGTAA,-0.155
6,ACCCTGGC,-0.139
7,GTAAGATA,0.0391
8,ATATGGTA,-0.134
9,AACGTAGT,-0.182
10,CACATTGA,-0.0599
11,GATCACAA,0.0765
12,ATATACAA,0.00765
13,TATCAAAA,-0.109
14,ACTACATC,-0.0979
15,CTCGTCAC,-0.0383
16,CAACTTTA,-0.126
17,GAAACGGC,0.0334
18,CCAAGCAC,-0.173
19,GCCCGAGA,0.173
20,GCATGGCA,0.0442
21,CACCGCAC,0.0456
22,GCGAAACC,0.169
23,ACGGGTAA,-0.0191
24,CAGCTTGG,-0.129
25,CTAACCTC,-0.0434

row,Sequence,PBM E-score
1,GAGGCCCC,0.0722
2,AGGCCCAT,-0.14
3,AAAGGAAC,-0.0358
4,GCGCCCAA,0.0697
5,TCTATAGA,-0.251
6,CCGAGAGC,0.286
7,ATTAGCAA,-0.0899
8,AAAGGTTA,-0.262
9,ACCGCCGC,0.235
10,ACCGCGTC,0.0891
11,TATCGTAA,-0.0239
12,AAAAGCAG,-0.219
13,GGTGATAC,0.019
14,ATAAGGAC,-0.218
15,CAACGGTA,-0.128
16,ACACGTGC,-0.0663
17,ACGGGAGC,0.0238
18,CACAGCAG,-0.225
19,CCAGATGA,-0.219
20,TAGGTCCA,-0.188
21,TATCTTAA,-0.0995
22,ATTATCAC,-0.0528
23,AATACGTA,-0.0884
24,CATGAACG,-0.14
25,AGTCTCAC,-0.176

row,Sequence,PBM E-score
1,GGGGGCGA,-0.0618
2,CTGCGTAC,-0.255
3,CCCAAGCC,-0.0262
4,AATCGATT,-0.13
5,CAGCCACA,-0.232
6,CTGGCACC,-0.0937
7,ACCTGCGT,0.0415
8,CGCATACG,0.135
9,CCTTAAGG,-0.061
10,GGGTTGAA,-0.0507
11,ATCAGTCC,0.00653
12,CGCTAGGA,-0.0719
13,GAAGTAGC,0.0122
14,AACCACAT,-0.128
15,GATGGGGA,8e-05
16,GTGGCCAA,-0.277
17,GGCCTTTA,-0.0232
18,GGGAATCA,-0.0137
19,CAAAGCCG,0.166
20,TAAAGGCA,-0.131
21,ACAAAAGT,-0.177
22,AAGGGACG,-0.173
23,CGAGTAGA,-0.143
24,ACAAAATC,0.0672
25,ACTTGATG,-0.0136

row,Sequence,PBM E-score
1,CAGCGCCG,0.318
2,CCCCTTCG,-0.0951
3,GCACATAA,-0.172
4,CCAGGTAC,-0.236
5,AACCTGCC,-0.16
6,CGGAGAAA,0.477
7,CAGCAGAC,-0.0889
8,CCGTGTCC,0.244
9,ACGTATCA,-0.117
10,CCAGGTAA,-0.0658
11,AACTAATA,0.154
12,TAGAGTAA,-0.0135
13,AGATCAAG,-0.188
14,AAGGTTCG,0.08
15,GTTGGCAA,-0.148
16,TATGTGAA,-0.341
17,GCCTAACC,-0.106
18,CAAAGTCC,0.307
19,CGGTTCCC,0.192
